In US20260109773A1 (HARPOON THERAPEUTICS, published 2026):

Biological target: T1, 02B05 TriTAC
T1 construct: TriTAC trispecific; His6 in entry; also called exemplary BCMA targeting trispecific protein (02B05)
Assay: Octet; 50 nM mouse serum albumin on streptavidin tips; n=1
Description: The affinities were measured using an Octet instrument. For these measurements, streptavidin tips were first loaded with 2.5 nM human BCMA-Fc, 2.5 nM cynomolgous BCMA-Fc, 2.5 nM human CD3ε-Fc, 2.5 nM cynomolgus CD3ε-Fc, 50 nM human serum albumin (HSA), 50 nM cynomolgus serum albumin, or 50 nM mouse serum albumin. […] Average calculated KD values from these studies are provided in Table 4 (n indicates the number of independent measurements, n/d indicates no binding detected under the conditions tested).

T1 sequence (chain, as listed by the source): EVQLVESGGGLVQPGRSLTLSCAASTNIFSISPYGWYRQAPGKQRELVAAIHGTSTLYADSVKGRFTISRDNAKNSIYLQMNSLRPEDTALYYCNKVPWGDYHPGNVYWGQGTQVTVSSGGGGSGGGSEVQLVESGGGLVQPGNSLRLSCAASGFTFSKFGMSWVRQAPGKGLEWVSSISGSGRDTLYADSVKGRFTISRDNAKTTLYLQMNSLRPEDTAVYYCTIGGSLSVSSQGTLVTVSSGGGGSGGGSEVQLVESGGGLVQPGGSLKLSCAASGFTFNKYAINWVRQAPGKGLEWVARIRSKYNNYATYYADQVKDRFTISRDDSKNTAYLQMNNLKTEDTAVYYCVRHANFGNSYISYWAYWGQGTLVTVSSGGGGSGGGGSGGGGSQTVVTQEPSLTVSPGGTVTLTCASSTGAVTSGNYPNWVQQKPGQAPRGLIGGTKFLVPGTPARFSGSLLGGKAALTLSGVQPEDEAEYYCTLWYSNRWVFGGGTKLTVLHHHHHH

Kd: 76 nM
B1: mouse serum albumin (other)
chain: not shown
notes: loaded on streptavidin tips
